Results: PubChem BioAssay AID1508624 (National Center for Advancing Translational Sciences (NCATS), 2021)
In all, about 48,000 compounds went through this assay and about 120 (0.25%) were called active. Another 4% or so got no clear call; they are omitted. Calls come from the whole dose curve; as a rule, active = well fitted activation curve with a large enough effect; inconclusive = small, poorly fitted or top-dose-only effect, or another doubt; inactive = no such curve, though single readings can be large or run the other way. This is one part of the list.

assay: Primary qHTS for Identification of Small Molecule Activators of Huntingtin-Antisense Promoter Activity; conditions: HEK293 HTT-AS promoter firefly luciferase reporter, 24 h; series mostly up to 57.5 µM; activity change, positive = activation: at the top concentration; note: nearly all actives have a fitted effect of over 55% in size
Method in brief: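 HEK293 Fluc reporter, 2,500 cells/well, 24 h pre-culture; cpds up to 57.5 uM final, 24 h 37 degrees C; Dual-Glo, 10 min RT; normalized vehicle = 0%, zero RLU = -100%.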

Activity change, positive = activation, inactive:
Cc1ccc(C)c(N2CCN(c3ncnc4c3nc3n4CCCC3)CC2)c1 -17.6%, CCc1ccc2nc(N(Cc3cccnc3)C(=O)c3ccc(C#N)cc3)sc2c1 16.9%, Cc1ccc(N2CCN(C(=O)c3nn(C)c4c3CS(=O)(=O)c3ccccc3-4)CC2)c(C)c1 -26.9%, CC(=O)Nc1ccc(NC(=O)c2oc3c(c2C)-c2nn(Cc4ccccc4Cl)cc2CC3)cc1 -39.3%, CCCCC(=O)Nc1ccc2nc(SCC(=O)N3CCc4ccccc43)sc2c1 -32.3%, O=C(CCn1c(=O)c2sccc2n(Cc2ccccc2F)c1=O)NCc1ccc2c(c1)OCO2 -9.27%, CCOC(=O)c1ccc(NC(=O)Cn2nc3c4ccccc4n(Cc4cccc(F)c4)cc-3c2=O)cc1 -7.53%, Cc1cccc(NC(=O)Cn2nc(-c3ccccc3)c3cnc4ccccc4c32)c1 -19.4%, CCOc1ccc(-n2cc(-c3ccccc3)c3c(NCCc4ccccc4)ncnc32)cc1 -14.6%, CCc1cccc(NC(=O)CCn2c(=O)c3cccn3c3cccnc32)c1 -1.43%, Cc1ccc(Nc2ccc3cc(S(=O)(=O)N4CCC(C)CC4)ccc3n2)c(Cl)c1 -23.7%, CCOC(=O)N1CCc2c(sc3c2c(=O)n(Cc2ccccc2)c(=O)n3CC(=O)Nc2cccc(CC)c2)C1 -18.7%, CCN(CC)CCOc1ccc(Nc2ncc3cc(-c4c(Cl)cccc4Cl)c(=O)n(C)c3n2)cc1 -33.4%, Cc1noc(-c2ccc(-c3noc(-c4ccc(F)cc4)n3)cc2)n1 -1.24% [at 11.5 µM, percent change from vehicle, -100% = no light], O=C(CCCn1c2ccccc2c(=O)c2ccccc21)Nc1cccc(Cl)c1 -35.2%, CCOC(=O)c1cccc(NC(=O)CCSCCc2ccccn2)c1 -10.9%, COc1cccc(CNC(=O)c2cc3c(-c4ccccc4F)nn(C)c3s2)c1 -37.8%, COc1cc(C2Nc3ccccc3-c3cc(C)nn32)ccc1O (stereo not drawn) -7.09%, Cc1ccc(NC(=O)Cn2nc(-c3ccccc3)nc(Cc3ccc(Cl)cc3)c2=O)cc1 1.43%, Cc1csc2nc(COC(=O)c3ccccc3NC(=O)c3cccc(Br)c3)cc(=O)n12 -45.3%, O=C(NCCc1ccc(Cl)cc1)c1c2c(nc3ccccc13)C(=O)N(C1CCCCC1)C2 -18.4%, O=S(=O)(c1ccc(Br)s1)N1CCN(c2cccc(C(F)(F)F)c2)CC1 -21.8%, COCCn1c(SCC(=O)Nc2cc(Cl)ccc2OC)nc2c([nH]c3ccccc32)c1=O -20.5%, Cc1cccc(Cn2cc(S(=O)(=O)c3cccc(Cl)c3)c(=O)c3cc(F)c(N4CCOCC4)cc32)c1 -10.4%, O=C1c2ccccc2C(=O)C1c1ccc(Br)cc1 25.6%, CCOC(=O)c1c(C)[nH]c(C)c1S(=O)(=O)N(C)CC(=O)Nc1ccc(OC)cc1 -0.2%, COc1ccc(CC(=O)Nc2c(C(=O)N3CCN(c4ccccc4)CC3)oc3ccccc23)cc1OC -29.5%, Cn1c(=O)c2nc(SCC(=O)Nc3ccc(OC(F)(F)F)cc3)n(C)c2n(C)c1=O 8.02%, CCN(CC)c1ncnc2c1cnn2-c1cc(Cl)ccc1C 6.26%, COc1ccc(-c2nc(CNC(=O)NC3CCCCC3)c(C)o2)cc1 -28.2%, COc1cc(C(CC(=O)Nc2ccc(C)c(F)c2)N2Cc3ccccc3C2=O)cc(OC)c1OC (stereo not drawn) -14.2%, CCOc1ccccc1NC(=O)C1CCN(S(=O)(=O)c2c(C)noc2/C=C/c2ccco2)CC1 -24.4%, O=C1OCC2=C1C(c1cccc(Cl)c1)CC(=O)N2c1ccc(C(F)(F)F)cc1 (stereo not drawn) -20.1%, COc1cc(OC)cc(-c2cc3nc(C)c(CCC(=O)NCCc4cccc(C)c4)c(C)n3n2)c1 -70.8%, COc1cc(NC(=O)Cn2nc(C(F)(F)F)c3c2CCC3)cc(OC)c1OC -39.2%, COc1ccc(OC)c(CNC(=O)c2ccc(N3Cc4ccccc4Oc4ncccc43)s2)c1 -21.2%, O=C(CCn1c(=O)c2ccccc2n(CC(=O)Nc2cccc(F)c2)c1=O)NCCc1ccccc1 -5.06%, CCn1c(-c2nonc2N)nc2c(C#CC(C)(C)O)ncc(OC[C@H]3CCCNC3)c21 -26.4%, CC1CCCN(CCCNC(=O)c2cc(Sc3ccc(F)cc3)nc3ccccc23)C1 (stereo not drawn) -23.6%, CCc1ccc(NC(=O)CSc2ccnc(=O)[nH]2)cc1 14.2%, O=C(NCCc1ccccc1)c1ccc2c(c1)N(Cc1ccc(Cl)cc1)C(=O)CS2 -33.3%, CC(=NNC(=S)N1CCC1)c1ccccn1 -35.9%, Cc1nn(C)c(C)c1S(=O)(=O)N(CC(=O)NCCc1ccccc1)c1ccc(C(C)C)cc1 -10.7%, Cc1ccc(C(=O)c2cn(Cc3cccc(Cl)c3)c3nc(C)ccc3c2=O)cc1 -27.2%, CCCCNC(=O)c1nn(C)c2c1CSc1ccccc1-2 18.7%, Cc1cc2c(cc1S(=O)(=O)NCc1ccc(F)cc1)n(C)c(=O)c(=O)n2C -23%, O=C(CSCc1ccc(F)cc1)N1CCN(c2ccccc2F)CC1 22.6%, Cc1cccc(N2C(=O)CC(c3ccc(F)cc3)C3=C2COC3=O)c1 (stereo not drawn) -5.95%, COc1ccc(NC(=O)c2ccco2)cc1NC(=O)COc1ccc(C)c(C)c1 -16.8%, CCCNC(=O)[C@H]1O[C@H]1C(=O)N[C@H](C(=O)N1CCC[C@@H]1C(=O)OC)C(C)CC (stereo partly drawn) -42.7%, COc1ccc(CNC(=O)CCNS(=O)(=O)c2ccc3c(c2)oc(=O)n3C)cc1 -7.64%, CC1(C)O[C@H]2C[C@@H]3[C@H]4CCC5=CC(=O)C=C[C@]5(C)[C@@]4(F)[C@@H](O)C[C@]3(C)[C@]2(C(=O)CO)O1 -18.3%, Cc1ccccc1C(=O)Nc1cc(C)c(O)c(-c2nc3ccccc3o2)c1 1.96%, CCCCCCn1nnc2sc(-c3ccccc3)cc2c1=O 14.8%, CC1CCN(CC2CCN(C(=O)NCc3ccccc3)CC2)CC1 -13.5%, CCC1CN(C(=O)Nc2ccccc2F)c2cc(C)ccc2O1 (stereo not drawn) -6.43%, COc1cc(C)ccc1OCCSc1nc2ccc(NC(=O)c3ccco3)cc2s1 -33%, COc1ccc(C2CC(=O)c3cc(-c4nc(-c5cccc([N+](=O)[O-])c5)cs4)c(=O)n(-c4ccccc4)c3C2)cc1 (stereo not drawn) -9.51%, CCN1c2ccccc2-c2nc(SCC(=O)Nc3cccc(C)c3C)ncc2S1(=O)=O -18.5%, CCn1cc(C(=O)N(C)Cc2ccccc2)c(=O)c2cc(S(=O)(=O)N3CCc4ccccc4C3)ccc21 -16.7%, COc1ccc(OC)c(NC(=O)CSc2nc(=O)n(CCN(C)C)c3c2CCC3)c1 -7.82%, COc1cc(NC(=O)CC2C(=O)N(c3ccccc3)C(=O)N2Cc2ccc(F)cc2)cc(OC)c1 (stereo not drawn) -12%, CCc1ccccc1NC(=O)N1CCOc2ccccc21 -24.3%, O=C(Cn1ncc2c([nH]c3ccccc32)c1=O)NCCCN1CCN(c2ccc(F)cc2)CC1 -16%, CCc1ccc(-n2c(=O)c3c4c(sc3n(Cc3ccccc3C#N)c2=O)CCCC4)cc1 5.85%, CCCn1c2ccccc2c2cnn(CC(=O)Nc3cc(C)c(Cl)cc3OC)c(=O)c21 -7.89%, CC1CCc2c(sc(NC(=O)Cc3ccccc3)c2C(=O)Nc2ccc(Cl)cc2)C1 (stereo not drawn) -3.31%, Cc1ccc(-c2nn3c(-c4ccccc4C)nnc3c3ccccc23)cc1 -42.3%, Cc1cn2c(=O)cc(COC(=O)c3ccc(NC(=O)COc4ccccc4C)cc3)nc2s1 -9.06%, CCOC(=O)c1cc(-c2ccccc2)n(-c2cccc(C(=O)Nc3cccc(SC)c3)c2)c1C -17.8%, CN1C(=O)C(Cc2c[nH]c3ccccc23)NC1=S (stereo not drawn) 13.3%, CCC(=O)Oc1ccc2c(c1)CC[C@@H]1[C@@H]2CC[C@@]2(C)[C@H]1C[C@@H](OC(=O)CC)[C@@H]2OC(=O)CC 1.14%, COc1ccc(CCC(=O)NCCc2csc(-c3ccc(F)cc3)n2)cc1 -4.32%, COc1cccc(CNC(=O)C2CCC(CNS(=O)(=O)c3ccc4c(c3)CCCC(=O)N4)CC2)c1 (stereo not drawn) 0.092%, CCN(CC)C(=O)Cn1c(=O)cc(C)c2c(C)nn(-c3cccc(Cl)c3C)c21 4.03%, Cc1ccc(NC(=O)CSc2nnc3scc(-c4ccc(Cl)cc4)n23)cc1 -7.79%, CCOC(=O)C1=C(CN2CCN(c3ccc(OC)cc3)CC2)NC(=O)NC1c1ccc(OC)cc1 (stereo not drawn) -24.5%, CCN(CC)CCCNc1oc(/C=C/c2ccc(OC)c(OC)c2)nc1C#N -16%, COc1ccc(NC(=O)Cn2cc(S(=O)(=O)N3CCN(c4ccccc4F)CC3)c3ccccc3c2=O)cc1Cl -12%, CCOc1ccc(-c2cc(C(=O)N3CCN(c4cc(Cl)ccc4C)CC3)c3ccccc3n2)cc1 -4.53%, CNc1c(NC(=O)c2ccc(OC)c(OC)c2)c(=O)oc2ccccc12 -1%, CN(C)c1nc(Cc2ccc(NC(=O)c3ccc(C(F)(F)F)cc3)cc2)nc(N(C)C)c1CC(=O)O -5.42%, Cc1cc2c(cc1S(=O)(=O)CCC(=O)N1CCC(C)CC1)OCC(=O)N2 -9.37%, CCc1ccc(C(=O)c2cn(CC(=O)Nc3ccc4c(c3)OCO4)c3ccc(CC)cc3c2=O)cc1 -13.6%, Cc1ccc(NC(=O)C(Cc2c[nH]c3ccccc23)NC(=O)OC(C)(C)C)c(C)c1 (stereo not drawn) -26.4%, Cc1cc(C)cc(NC(=O)NCCc2c(C)nn(C)c2C)c1 0.649%, Cc1cc(Nc2ccccc2F)n2nc(-c3ccccc3)nc2n1 -9.24%, CCOc1ccc(Nc2oc(-c3ccc(COc4ccc(OC)cc4)o3)nc2C#N)cc1 2.3%, CCOC(=O)C1CCN(c2cc3c(cc2NC(=O)c2ccc(Cl)cc2)n(C)c(=O)n3C)CC1 -9.49%, COC(=O)c1ccc(Cl)cc1NC(=O)N1CC2CCCN2c2ccccc21 (stereo not drawn) -28.3%, COc1ccc(S(=O)(=O)NCc2ccc3c(c2)CCN3C(=O)c2ccccc2)cc1OC -27.5%, COc1ccc(NC(=O)CN2C(=O)CCn3nc(-c4cccn4C)cc32)cc1 -3.09%, Cc1cc(C)c(Nc2nc3ccccc3n3c(C)nnc23)c(C)c1 -9.43%
